# This is one part of the list. The source does not settle which construct or isoform was used.
# Target: GST-SBP-ILF3 (Homo sapiens) (UniProt Q12906)
# Assay: targeted RNA Bind-n-Seq
# Conditions: RBNS binding buffer: 25 mM Tris pH 7.5, 150 mM KCl, 3 mM MgCl2, 0.1% Tween, 0.5 mg/mL BSA, 1 mM DTT; 27 nM protein, 750 pM RNA pool; temperature not stated; high values mean tight binding; sequences stand for … in GGGUAAAAGCGAGGUGAA…CGGGACAAGUAUUAUGGG
row,Sequence,binding signal (log2 fold change)
1,UUUUUUUUUUGAGAUGGCUACCAUCUCCAG [tttttgagapaired],0.427
2,UUUUUUUUUUGAGACGGUAUCCGUCUUCUA [tttttgagapaired],0.163
3,UUUUUUUUUUGAGAGCGAAGCGCUCUCCUG [tttttgagapaired],0.28
4,UUUUUUUUUUGAGAACGAGUCGUUCUCCUA [tttttgagapaired],-0.0349
5,UUUUUUUUUUGAGAGCGUAGCGCUCUCCUA [tttttgagapaired],0.379
6,UUUUUUUUUUGAGACGGGGACUGUCUCCUG [tttttgagapaired],1.02
7,UUUUUUUUUUGAGACUGAGACAGUCUCCGG [tttttgagapaired],0.313
8,GUGUGUGGUGUUGGAGUCUAACACCGCGCA [gtspaired],-0.791
9,UUUUUUUUUUGAGAGGGGCUCCCUCUUCUG [tttttgagapaired],0.719
10,UUUUUUUUUUGAGAUGGCAUCCAUCUUCUG [tttttgagapaired],0.256
11,UUUUUUUUUUGAGACUGGAGCAGUCUCCAG [tttttgagapaired],0.594
12,UUUUUUUUUUGAGAUGGAUGCCGUCUCCUA [tttttgagapaired],0.517
13,UUUUUUUUUUGAGACGGAUUCCGUCUUCUG [tttttgagapaired],0.354
14,UUUUUUUUUUGAGAGCGUAGCGUUCUCCUG [tttttgagapaired],0.616
15,GUGGUGUGUGUUGGCGCCUAACACACGCCG [gtspaired],-0.452
16,UUUUUUUUUUGAGAAGGCUUCCUUCUCCAG [tttttgagapaired],0.0835
17,UUCUUCUCUCCUCCAAGGGAGGGGGGAAGA [ctspaired],-0.357
18,UUUUUUUUUUGAGACUGAUGCAGUCUCCUA [tttttgagapaired],0.428
19,UUUUUUUUUUGAGACGGCCACCGUCUCCUG [tttttgagapaired],0.824
20,GGUUGGUGUGUUGGCUCCUAACACAUCGAC [gtspaired],-0.634
21,UUUUUUUUUUGAGAUCGAAACGGUCUCCGG [tttttgagapaired],0.221
22,GGUGUGUGUGUUGGACUCUAACACAUACGC [gtspaired],-1.25

row,Sequence,binding signal (log2 fold change)
1,UUUUUUUUUUGAGACUGAAACAGUCUUCUG [tttttgagapaired],0.334
2,GUGUGUUGUGUUGGUACCUAACACAGCACA [gtspaired],-0.583
3,GUGUUGUGUGUUGGUACCUAACACACAGCA [gtspaired],-0.434
4,GGUGGUGGUGUUGGCAUCUAACACCGCUAC [gtspaired],-0.762
5,UUUUUUUUUUGAGAUGGCGCCCAUCUCCAG [tttttgagapaired],0.648
6,UUUUUUUUUUGAGACGGAAACCGUUUCCUG [tttttgagapaired],0.419
7,UUUUUUUUUUGAGACCGGGGCGGUCUCCUA [tttttgagapaired],0.454
8,UUUUUUUUUUGAGAGCGACGCGUUCUCCGG [tttttgagapaired],0.586
9,UUUUUUUUUUGAGAGGGAUACCCUCUCCUA [tttttgagapaired],0.0921
10,UUUUUUUUUUGAGAUGGACUCCAUUUCCGG [tttttgagapaired],0.234
11,GUGUGGUGUGUUGGACUCUAACACACUACG [gtspaired],-0.981
12,UUUUUUUUUUGAGACCGGCACGGUCUCCAG [tttttgagapaired],0.52
13,GGUUGGUGUGUUGGCGUCUAACACACUAAC [gtspaired],-0.424
14,UUUUUUUUUUGAGACGGGAUCCGUCUCCUG [tttttgagapaired],0.403
15,UUUUUUUUUUGAGACGGAGGCCGUCUCCUG [tttttgagapaired],0.695
16,UUUUUUUUUUGAGAGGGAAUCCUUCUCCUA [tttttgagapaired],-0.179
17,UUUUUUUUUUGAGAUGGAGACUAUCUCCUA [tttttgagapaired],0.31
18,GUUGGUGGUGUUGGAGCCUAACACCACCAG [gtspaired],-0.558
19,UUUUUUUUUUGAGAACGAUGCGUUCUCCUA [tttttgagapaired],-0.00569
20,UUUUUUUUUUGAGAUGGAAGCCAUUUCCAG [tttttgagapaired],0.28
21,GUGUGUUGUGUUGGCACCUAACACAGCACA [gtspaired],-0.539
22,GGUUGGUGUGUUGGAGCCUAACACAUCAGC [gtspaired],-0.813

row,Sequence,binding signal (log2 fold change)
1,GGUGUUGGUGUUGGUCCCUAACACCGAUAC [gtspaired],-0.441
2,UUUUUUUUUUGAGACCGGGACGGUUUCCUG [tttttgagapaired],0.751
3,UUUUUUUUUUGAGAACGACGCGUUCUCCGG [tttttgagapaired],0.25
4,GUUGUGUGUGUUGGCGCCUAACACACACGA [gtspaired],-0.408
5,GUGUGUGGUGUUGGCCUCUAACACCACGCG [gtspaired],-0.758
6,GGUUGUGGUGUUGGUCCCUAACACCAUAAC [gtspaired],0.044
7,GUGUGGUGUGUUGGCACCUAACACAUCACA [gtspaired],-0.596
8,GUGGUUGGUGUUGGACCCUAACACCAGCCA [gtspaired],-0.442
9,UUUUUUUUUUGAGACUGGACCAGUCUCCAG [tttttgagapaired],0.448
10,UUUUUUUUUUGAGAGCGGUCCGCUCUCCUA [tttttgagapaired],0.504
11,UUUUUUUUUUGAGAUGGUGACCAUCUCCAG [tttttgagapaired],0.429
12,UUUUUUUUUUGAGAUGGCGUCCAUCUCCUA [tttttgagapaired],0.482
13,UUUUUUUUUUGAGACCGAGUCGGUCUCCGG [tttttgagapaired],0.343
14,UUUUUUUUUUGAGAGGGAUCCCCUCUCCGG [tttttgagapaired],0.336
15,UUUUUUUUUUGAGACUGAGUCAGUCUUCUA [tttttgagapaired],0.26
16,GUGUUGUGUGUUGGUAUCUAACACACAGCG [gtspaired],-0.668
17,UUUUUUUUUUGAGACUGUGGCAGUCUCCAG [tttttgagapaired],0.306
18,GGUGGUUGUGUUGGCCUCUAACACAGCUAC [gtspaired],-0.766
19,UUUUUUUUUUGAGACGGGGGCUGUCUCCUA [tttttgagapaired],0.975
20,UUUUUUUUUUGAGAGGGACGCCCUCUCCAG [tttttgagapaired],0.662
21,UUUUUUUUUUGAGAUGGAAACCAUCUCCAG [tttttgagapaired],0.115
